# Data published in the supplement of paper PMC8728848.
# The list shows a part of the results.
# What was measured:
# Assay in all cases: glycan array binding signal (z-score within array); higher = stronger binding
# Conditions in all cases: glycan notation: IUPAC condensed, linker removed
# [1] = biological target: Fuc(a1-2)Gal
# Outline: (§1)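 The binding signal is a Z-score computed within each array and averaged over linkers. Arrays of the same protein sequence at different concentrations or buffers were also averaged together. Data originate from 3228 arrays in the Consortium for Functional Glycomics database, kept only where the protein sequence was available.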
# [2] = biological target: Fuc(a1-2)Gal(b1-3)GalNAc
# Outline: as §1
# [3] = biological target: Fuc(a1-2)Gal(b1-3)GalNAc(b1-3)Gal
# Outline: as §1
# [4] = biological target: Fuc(a1-2)Gal(b1-3)GalNAc(b1-3)Gal(a1-4)Gal(b1-4)Glc
# Outline: as §1
# [5] = biological target: Fuc(a1-2)Gal(b1-3)GalNAc(b1-3)Gal(b1-4)Glc
# Outline: as §1
# [6] = biological target: Fuc(a1-2)Gal(b1-3)GalNAc(b1-4)[Neu5Ac(a2-3)]Gal(b1-4)Glc
# Outline: as §1
# [7] = biological target: Fuc(a1-2)Gal(b1-3)[Fuc(a1-4)]GlcNAc
# Outline: as §1
# [8] = biological target: Fuc(a1-2)Gal(b1-4)Glc
# Outline: as §1
# [9] = biological target: Fuc(a1-2)Gal(b1-4)GlcNAc
# Outline: as §1
# [10] = biological target: Fuc(a1-2)Gal(b1-4)GlcNAc(b1-3)Gal(b1-4)GlcNAc
# Outline: as §1
# [11] = biological target: Fuc(a1-2)Gal(b1-4)GlcNAc(b1-3)Gal(b1-4)GlcNAc(b1-3)Gal(b1-4)GlcNAc
# Outline: as §1
# [12] = biological target: Fuc(a1-2)Gal(b1-4)[Fuc(a1-3)]GalNAc(b1-3)Gal(b1-4)[Fuc(a1-3)]GlcNAc
# Outline: as §1
# [13] = biological target: Fuc(a1-2)Gal(b1-4)[Fuc(a1-3)]GalNAc(b1-3)Gal(b1-4)[Fuc(a1-3)]GlcNAc(b1-3)Gal(b1-4)[Fuc(a1-3)]GalNAc
# Outline: as §1
# [14] = biological target: Fuc(a1-2)Gal(b1-4)[Fuc(a1-3)]GlcNAc
# Outline: as §1
# [15] = biological target: Fuc(a1-2)GlcNAc
# Outline: as §1
# [16] = biological target: Fuc(a1-2)[Gal(a1-3)]Gal
# Outline: as §1
# [17] = biological target: Fuc(a1-2)[Gal(a1-3)]Gal(b1-3)GlcNAc
# Outline: as §1
# [18] = biological target: Fuc(a1-2)[Gal(a1-3)]Gal(b1-4)Glc
# Outline: as §1
# [19] = biological target: Fuc(a1-2)[Gal(a1-3)]Gal(b1-4)GlcNAc
# Outline: as §1
# [20] = biological target: Fuc(a1-2)[Gal(a1-3)]Gal(b1-4)[Fuc(a1-3)]GlcNAc
# Outline: as §1
# [21] = biological target: Fuc(a1-2)[Gal(a1-4)]Gal(b1-4)GalNAc
# Outline: as §1
# [22] = biological target: Fuc(a1-2)[GalNAc(a1-3)]Gal
# Outline: as §1
# [23] = biological target: Fuc(a1-2)[GalNAc(a1-3)]Gal(b1-3)GlcNAc
# Outline: as §1
# [24] = biological target: Fuc(a1-2)[GalNAc(a1-3)]Gal(b1-4)Glc
# Outline: as §1
# [25] = biological target: Fuc(a1-2)[GalNAc(a1-3)]Gal(b1-4)GlcNAc
# Outline: as §1
# [26] = biological target: Fuc(a1-2)[GalNAc(a1-3)]Gal(b1-4)[Fuc(a1-3)]GlcNAc
# Outline: as §1
# [27] = biological target: Fuc(a1-2)[GalNAc(a1-4)]Gal(b1-4)GlcNAc
# Outline: as §1
# [28] = biological target: Fuc(a1-3)GlcNAc
# Outline: as §1
# [29] = biological target: Fuc(a1-3)[Gal(b1-4)]GlcNAc
# Outline: as §1
# [30] = biological target: Fuc(a1-3)[Gal(b1-4)]GlcNAc(b1-4)Gal(b1-4)[Fuc(a1-3)]GlcNAc
# Outline: as §1
# [31] = biological target: Fuc(a1-3)[Gal(b1-4)]GlcNAc(b1-4)Gal(b1-4)[Fuc(a1-3)]GlcNAc(b1-4)Gal(b1-4)[Fuc(a1-3)]GlcNAc
# Outline: as §1
# [32] = biological target: Fuc(a1-3)[Gal3S(b1-4)]GlcNAc
# Outline: as §1
# [33] = biological target: Fuc(a1-3)[GalNAc(b1-4)]Gal(b1-4)GlcNAc
# Outline: as §1
# [34] = biological target: Fuc(a1-4)GlcNAc
# Outline: as §1
# [35] = biological target: Fuc(b1-3)GlcNAc
# Outline: as §1
# [36] = biological target: Gal(a1-2)Gal
# Outline: as §1
# [37] = biological target: Gal(a1-3)Gal
# Outline: as §1
binder,measurement,setting,value
7WC (Trifolium repens) (protein) MGTITSYAVVFDAGSTGSRVHVYHFDQNLDLLHIGKDVEFYNKIQPGLSAYADNPEQAAKSLIPLLEQAENVVPEDFHSKTPIRLGATAGLRLLDGDASERILQAVRDMLNNKSTFNVQPDAVSIIDGTQEGSYLWVTINYVLGNLGKRFTNTVGVIDLGGGSVQMAYAVSKKTARNAPKVTDGEDPYIKKIVLKGKPYDLYVHSYLHFGREASRAEILKVTHGSASPCILAGFDGIYTYSGEEFKASAPTSGANFDKCKKIIQKALKLDYPCPYQNCTFGGIWNGGGGSGQKKLFAASSFFYLPQDVGMVDPNKSNLKLRPVDLENKAKIVCTLNVEDVKSAYPLLEKFNIVPYACMDLIYQYELLVDGFGLDPLQEITAGEKIEYQEALVDAAWALGNAVEAVLLLPKFERLMYFVVEHHHHHH,glycan array binding signal (z-score),[1],-0.33
same,glycan array binding signal (z-score),[2],-0.345
same,glycan array binding signal (z-score),[3],-0.476
same,glycan array binding signal (z-score),[4],-0.428
same,glycan array binding signal (z-score),[5],-0.261
same,glycan array binding signal (z-score),[6],-0.411
same,glycan array binding signal (z-score),[7],-0.35
same,glycan array binding signal (z-score),[8],-0.213
same,glycan array binding signal (z-score),[9],-0.429
same,glycan array binding signal (z-score),[10],-0.484
same,glycan array binding signal (z-score),[11],-0.438
same,glycan array binding signal (z-score),[12],-0.347
same,glycan array binding signal (z-score),[13],0.143
same,glycan array binding signal (z-score),[14],-0.391
same,glycan array binding signal (z-score),[15],-0.382
same,glycan array binding signal (z-score),[16],-0.294
same,glycan array binding signal (z-score),[17],-0.338
same,glycan array binding signal (z-score),[18],-0.264
same,glycan array binding signal (z-score),[19],-0.227
same,glycan array binding signal (z-score),[20],-0.4
same,glycan array binding signal (z-score),[21],-0.147
same,glycan array binding signal (z-score),[22],-0.24
same,glycan array binding signal (z-score),[23],-0.374
same,glycan array binding signal (z-score),[24],-0.35
same,glycan array binding signal (z-score),[25],-0.282
same,glycan array binding signal (z-score),[26],-0.306
same,glycan array binding signal (z-score),[27],-0.278
same,glycan array binding signal (z-score),[28],-0.113
same,glycan array binding signal (z-score),[29],-0.354
same,glycan array binding signal (z-score),[30],0.351
same,glycan array binding signal (z-score),[31],-0.327
same,glycan array binding signal (z-score),[32],-0.435
same,glycan array binding signal (z-score),[33],-0.112
same,glycan array binding signal (z-score),[34],-0.573
same,glycan array binding signal (z-score),[35],-0.302
same,glycan array binding signal (z-score),[36],-0.221
same,glycan array binding signal (z-score),[37],-0.388
